In patent US11541126B1, “Anti-ASGR1 antibody TLR8 agonist comprising conjugates and uses thereof” (Silverback Therapeutics, Inc., priority 2020, dated 2023):

Experiments:
rat CLEC10A ECD [1] = target: T1, rat CLEC10A ECD (Rattus norvegicus, UniProt P49301); assay: OCTET equilibrium dissociation constant to monomeric rat CLEC10A ECD; assay type: binding; conditions: in words
T1 construct: His-tagged rat CLEC10A ECD (R&D Systems) was immobilized to OCTET® Penta-His biosensors; purchased R&D Systems
T1 sequence (P49301 59-306 limits assumed): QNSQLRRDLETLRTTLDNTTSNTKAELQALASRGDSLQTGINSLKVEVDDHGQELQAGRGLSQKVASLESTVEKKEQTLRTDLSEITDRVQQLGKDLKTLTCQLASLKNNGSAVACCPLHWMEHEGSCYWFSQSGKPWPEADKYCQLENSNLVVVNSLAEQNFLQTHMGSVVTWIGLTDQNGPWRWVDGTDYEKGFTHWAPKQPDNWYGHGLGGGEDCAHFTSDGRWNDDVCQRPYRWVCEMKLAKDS
Description: Further analysis of chK2E and ASGR1 mAb-B were investigated to determine equilibrium dissociation constants to rat CLEC10A ECD by OCTET® Red 96 instrument (ForteBio). Antibodies chK2E and ASGR1 mAb-B were minimally biotinylated prior to capture to streptavidin (SA) biosensors using EZ-LINK™ NHS-PEG4-Biotin, NO-WEIGH™ Format (Thermo Scientific) at a calculated ratio of three biotins to one mAb. Biotinylated proteins were purified by ZEBA™ spin desalting columns (Thermo Scientific) to remove free biotin. The interacting monomeric rat CLEC10 ECD (R&D Systems) was used at 5-6 concentrations of a 3-fold concentration series to determine equilibrium constants in kinetics buffer using the following steps: (1) hydration of SA biosensors in kinetics buffer (10 min); (2) baseline acquisition (30 s); (3) immobilization biotinylated chK2E or ASGR1 mAb-B at concentration of 5 µg/mL (180 s or until all sensors reached a 1 nm shift); (4) second baseline acquisition (60 s); (5) association of rat CLEC10A ECD starting at 200 nM with 3× dilutions (300 s); (7) dissociation in kinetics buffer (600 s).
The data were analyzed using OCTET® Data Analysis Software 9.0 (ForteBio) and fit to the bivalent binding model. The equilibrium dissociation constants (KD) were calculated by the ratio of koff to kon.

[2] = target: T2, human ASGR1 extracellular domain (ECD) (Homo sapiens, UniProt P07306); assay: Effect of calcium on binding to human ASGR1 ECD (OCTET); set-up: key to Ca^2+ Sensitivity during: Association / Ca^2+ Sensitivity during: Dissociation / Ca^2+ Sensitivity: N = No; Y = Yes
T2 sequence (P07306 62-291 limits assumed): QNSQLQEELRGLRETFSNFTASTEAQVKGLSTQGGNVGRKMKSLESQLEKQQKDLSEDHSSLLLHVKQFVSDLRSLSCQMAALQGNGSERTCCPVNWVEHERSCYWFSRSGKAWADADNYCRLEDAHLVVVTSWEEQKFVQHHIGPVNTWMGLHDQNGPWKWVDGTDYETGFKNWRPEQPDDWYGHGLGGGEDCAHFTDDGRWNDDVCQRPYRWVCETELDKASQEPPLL
Experimental: The ability of anti-human ASGR1 antibodies of this disclosure to bind to human ASGR1 in the presence or absence of calcium in binding buffer was examined. Briefly, ASGR1 antibodies were bound to immobilized human ASGR1 extracellular domain (ECD) at saturating levels and subsequently dissociated under three different conditions as follows: (a) binding and dissociation with buffer containing calcium (PBS+1% BSA+0.2% Tween20+0.9 mM CaCl2), pH 7.4); (b) binding with buffer containing calcium and dissociation with buffer lacking calcium; and (c) binding and dissociation with buffer lacking calcium. Analysis of ASGR1 antibody binding to human ASGR1 ECD was performed using the OCTET® Red 96 instrument and analyzed using the OCTET®Data Analysis Software 9.0 (ForteBio). His-tagged human ASGR1 ECD was immobilized to OCTET® Penta-His biosensors and ASGR1 antibodies were subjected to avidity binding under the conditions described above. Association with the ASGR1 ECD was measured by the rate of and increase in magnitude of signal response at a given antibody concentration. Dissociation from the ASGR1 ECD was measured as the rate of loss in signal upon removal of the antibody and further incubation with or without Ca^2+. […] Also tested were humanized antibodies hzH8K-1 and hzL4L-7.
Further analysis of the antibodies of this disclosure was to determine whether the presence of calcium was needed for binding (i.e., during association) of the antibodies to human ASGR1 ECD. […]

rat CLEC10A ECD [3] = target: T1, rat CLEC10A ECD; assay: OCTET avidity binding to immobilized rat CLEC10A ECD
Experimental: Analysis of binding to the rat CLEC10A ECD was performed using the OCTET® Red 96 instrument (ForteBio). His-tagged rat CLEC10A ECD (R&D Systems) was immobilized to OCTET® Penta-His biosensors and subjected to avidity binding of test antibodies in kinetics buffer (PBS+1% BSA+0.2% Tween20+0.9 mM CaCl2) at pH 7.4) in the following steps: (1) hydration of Penta-His biosensors in kinetics buffer (10 min); (2) regeneration and neutralization of Penta-His biosensor in 10 mM glycine-HCl (pH 1.5) and kinetics buffer, respectively in triplicate; (3) baseline acquisition (30 s); (4) immobilization of rat CLEC10A ECD to Penta-His biosensors at a concentration of 10 μg/mL (180 s); (5) second baseline acquisition (60 s); (6) association of test antibody at 25 μg/mL (60 s); (7) dissociation in kinetics buffer (60 s).
The interactions of test mAbs with rat CLEC10A ECD was analyzed using the OCTET® Data Analysis Software 9.0 (ForteBio).

B1: chK2E: chimeric antibody "chK2E (heavy chain SEQ ID NO:151; light chain SEQ ID NO:207)" (antibody)
heavy: QVQLQQSAAELARPGASVKMSCKASGYTFTSYTMHWVKQRPGQGLEWIGYISPSSGYTEYNQKFKDKTTLTADKSSSTAYMQLSSLTSEDSAVYYCARKFDYWGQGTTLTVSS[human IgG1 constant region cut from this listing]
light: DIKMTQSPSSMYASLGERVTITCKASQDINSYLSWFQQKPGKSPKTLIYRANRLVDGVPSRFSGSGSGQDFSLTISSLEYEDMGIYYCLQYDEFPFTFGSGTKLEIKRTVAAPSVFIFPPSDEQLKSGTASVVCLLNNFYPREAKVQWKVDNALQSGNSQESVTEQDSKDSTYSLSSTLTLSKADYEKHKVYACEVTHQGLSSPVTKSFNRGEC
modifications: Synthetic sequence chK2E Heavy Chain; Synthetic sequence chK2E Light Chain
- Off-target binding to rat CLEC10A ECD (rat CLEC10A ECD [1]): not observed to bind
- Ca^2+ Sensitivity [2]: Y
- Ca^2+ Sensitivity during: Association [2]: Y
- Ca^2+ Sensitivity during: Dissociation [2]: N
- Sensitivity to calcium (difference in binding signal after dissociation >±10%) ([2]; in words): lacking sensitivity to calcium
- Binding signal to rat CLEC10A ECD (rat CLEC10A ECD [3]; in words): minor signal above background
- Response, binding to rat CLEC10A ECD (rat CLEC10A ECD [3]; test antibody at 25 μg/mL): 0.0984 nm
